Variants at the background level are over-represented here.

Sequences and labels used below:
B1: glmS ribozyme (parent)
chain: AUAAAAGCGCCAGAACUACAGAAAUGUAGUUGACGAGGAGGAGGUUUAUCGAAUUUUCGGCGGAUGCCUCCAAA

What all share (conditions): with glucosamine-6-phosphate
Series [1] covers variants of B1. The series can be described thus: self-cleavage kobs at 640 uM GlcN6P; higher = faster cleavage; RNA array. A digest of the protocol:
(§1)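 kobs was derived by fitting per-tile medians to one- or two-exponential decays after normalising signals to baseline and to non-cleaving reference variants. Those signals came from barcoded ribozyme variants transcribed in situ by E. coli RNA polymerase on sequenced MiSeq chips, followed through a hybridised Cy3 probe at 37 °C and imaged over ~14 h. Glucosamine-6-phosphate (40 μM to 10 mM) in HEPES/KCl/Mg(OAc)2 buffer was flowed in. Weighted Michaelis–Menten fits across concentrations then gave kcat and KM.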

In series [2] the parent is B1. The experiment in a line: self-cleavage kobs at 160 uM GlcN6P; higher = faster cleavage; RNA array. A digest of the protocol:
as §1

The variants in series [3] derive from B1. The experiment in a line: self-cleavage kobs at 2500 uM GlcN6P; higher = faster cleavage; RNA array. A digest of the protocol:
as §1

In series [4] the parent is B1. The experiment in a line: self-cleavage kobs at 10000 uM GlcN6P; higher = faster cleavage; RNA array. A digest of the protocol: as §1

With G9A A33C A52U U56C U57C, the “self-cleavage kobs at 640 uM GlcN6P” value with glucosamine-6-phosphate [1] was less than 1e-05 s⁻¹.

As for C8A G32C A33C G38C G51A U54C, in the series with glucosamine-6-phosphate [1], the “self-cleavage kobs at 640 uM GlcN6P” value was less than 1e-05 s⁻¹.

As to C8A U30C G51U, the “self-cleavage kobs at 640 uM GlcN6P” value with glucosamine-6-phosphate [1] is less than 1e-05 s⁻¹.

Consider C8U G41C G62U C68U, for which the “self-cleavage kobs at 640 uM GlcN6P” value in the series with glucosamine-6-phosphate [1] was less than 1e-05 s⁻¹. For the same variant, the “self-cleavage kobs at 160 uM GlcN6P” value with glucosamine-6-phosphate [2] is less than 1e-05 s⁻¹. Further, the “self-cleavage kobs at 2500 uM GlcN6P” value with glucosamine-6-phosphate [3] is less than 1e-05 s⁻¹.

As for C8G A53G G62A, in the series with glucosamine-6-phosphate [1], the “self-cleavage kobs at 640 uM GlcN6P” value was less than 1e-05 s⁻¹.

Regarding C8G U30A G63A, the “self-cleavage kobs at 640 uM GlcN6P” value in the series with glucosamine-6-phosphate [1] is less than 1e-05 s⁻¹. The “self-cleavage kobs at 160 uM GlcN6P” value with glucosamine-6-phosphate [2] was less than 1e-05 s⁻¹. Also, in the series with glucosamine-6-phosphate [3], the “self-cleavage kobs at 2500 uM GlcN6P” value is less than 1e-05 s⁻¹.

Take C8G C11U A53G U55A C67U C71U: the “self-cleavage kobs at 640 uM GlcN6P” value with glucosamine-6-phosphate [1] was less than 1e-05 s⁻¹. In addition, the “self-cleavage kobs at 2500 uM GlcN6P” value in the series with glucosamine-6-phosphate [3] was less than 1e-05 s⁻¹.

With C8U U45G U46G A64U G66C, the “self-cleavage kobs at 640 uM GlcN6P” value in the series with glucosamine-6-phosphate [1] was less than 1e-05 s⁻¹. Moreover, the “self-cleavage kobs at 2500 uM GlcN6P” value with glucosamine-6-phosphate [3] is less than 1e-05 s⁻¹.

For C8A G43C C61A, the “self-cleavage kobs at 640 uM GlcN6P” value with glucosamine-6-phosphate [1] was less than 1e-05 s⁻¹.

For the variant C8G G32U G44U, the “self-cleavage kobs at 640 uM GlcN6P” value with glucosamine-6-phosphate [1] was less than 1e-05 s⁻¹. Besides, the “self-cleavage kobs at 160 uM GlcN6P” value in the series with glucosamine-6-phosphate [2] is less than 1e-05 s⁻¹. Besides, in the series with glucosamine-6-phosphate [3], the “self-cleavage kobs at 2500 uM GlcN6P” value is less than 1e-05 s⁻¹.

On to C8U G13C C16G A39U, for which the “self-cleavage kobs at 640 uM GlcN6P” value in the series with glucosamine-6-phosphate [1] was less than 1e-05 s⁻¹. In addition, the “self-cleavage kobs at 160 uM GlcN6P” value with glucosamine-6-phosphate [2] is less than 1e-05 s⁻¹. Further, the “self-cleavage kobs at 2500 uM GlcN6P” value with glucosamine-6-phosphate [3] was less than 1e-05 s⁻¹.

C8A U54C: in the series with glucosamine-6-phosphate [1], the “self-cleavage kobs at 640 uM GlcN6P” value is less than 1e-05 s⁻¹. The “self-cleavage kobs at 160 uM GlcN6P” value with glucosamine-6-phosphate [2] was less than 1e-05 s⁻¹. In addition, the “self-cleavage kobs at 2500 uM GlcN6P” value in the series with glucosamine-6-phosphate [3] is less than 1e-05 s⁻¹. Moreover, in the series with glucosamine-6-phosphate [4], the “self-cleavage kobs at 10000 uM GlcN6P” value was less than 1e-05 s⁻¹.

On to C8A G44A A48G U49G G60U, for which the “self-cleavage kobs at 640 uM GlcN6P” value with glucosamine-6-phosphate [1] was less than 1e-05 s⁻¹.

As to C8U A14G U31G A39U, the “self-cleavage kobs at 640 uM GlcN6P” value in the series with glucosamine-6-phosphate [1] is less than 1e-05 s⁻¹. The “self-cleavage kobs at 2500 uM GlcN6P” value with glucosamine-6-phosphate [3] was less than 1e-05 s⁻¹. For the same variant, the “self-cleavage kobs at 10000 uM GlcN6P” value in the series with glucosamine-6-phosphate [4] is less than 1e-05 s⁻¹.

With C8G C34U, the “self-cleavage kobs at 640 uM GlcN6P” value with glucosamine-6-phosphate [1] was less than 1e-05 s⁻¹. In addition, in the series with glucosamine-6-phosphate [2], the “self-cleavage kobs at 160 uM GlcN6P” value was less than 1e-05 s⁻¹. The “self-cleavage kobs at 10000 uM GlcN6P” value in the series with glucosamine-6-phosphate [4] was less than 1e-05 s⁻¹.

For C8G A53C, the “self-cleavage kobs at 640 uM GlcN6P” value in the series with glucosamine-6-phosphate [1] is less than 1e-05 s⁻¹. Besides, the “self-cleavage kobs at 160 uM GlcN6P” value with glucosamine-6-phosphate [2] is less than 1e-05 s⁻¹. The “self-cleavage kobs at 2500 uM GlcN6P” value with glucosamine-6-phosphate [3] is less than 1e-05 s⁻¹. Further, the “self-cleavage kobs at 10000 uM GlcN6P” value in the series with glucosamine-6-phosphate [4] is less than 1e-05 s⁻¹.

Take C8A U56G: the “self-cleavage kobs at 640 uM GlcN6P” value with glucosamine-6-phosphate [1] is less than 1e-05 s⁻¹. For the same variant, the “self-cleavage kobs at 160 uM GlcN6P” value in the series with glucosamine-6-phosphate [2] is less than 1e-05 s⁻¹. For the same variant, the “self-cleavage kobs at 2500 uM GlcN6P” value with glucosamine-6-phosphate [3] was less than 1e-05 s⁻¹. Moreover, in the series with glucosamine-6-phosphate [4], the “self-cleavage kobs at 10000 uM GlcN6P” value was less than 1e-05 s⁻¹.

Take C8U C16G G21U G29U U31C: the “self-cleavage kobs at 640 uM GlcN6P” value in the series with glucosamine-6-phosphate [1] was less than 1e-05 s⁻¹. Further, in the series with glucosamine-6-phosphate [3], the “self-cleavage kobs at 2500 uM GlcN6P” value was less than 1e-05 s⁻¹.

Turning to G9A C16A G63A, the “self-cleavage kobs at 640 uM GlcN6P” value in the series with glucosamine-6-phosphate [1] was less than 1e-05 s⁻¹. Moreover, the “self-cleavage kobs at 160 uM GlcN6P” value in the series with glucosamine-6-phosphate [2] was less than 1e-05 s⁻¹. Besides, the “self-cleavage kobs at 2500 uM GlcN6P” value with glucosamine-6-phosphate [3] was less than 1e-05 s⁻¹.

Regarding G9A A12U G13C A64U, in the series with glucosamine-6-phosphate [1], the “self-cleavage kobs at 640 uM GlcN6P” value was less than 1e-05 s⁻¹. The “self-cleavage kobs at 2500 uM GlcN6P” value with glucosamine-6-phosphate [3] is less than 1e-05 s⁻¹.

In the case of C8A G26U A42U, in the series with glucosamine-6-phosphate [1], the “self-cleavage kobs at 640 uM GlcN6P” value is less than 1e-05 s⁻¹.

As for G9A C10U G44C G59A, the “self-cleavage kobs at 640 uM GlcN6P” value with glucosamine-6-phosphate [1] was less than 1e-05 s⁻¹. Besides, the “self-cleavage kobs at 160 uM GlcN6P” value with glucosamine-6-phosphate [2] is less than 1e-05 s⁻¹. Further, the “self-cleavage kobs at 2500 uM GlcN6P” value with glucosamine-6-phosphate [3] was less than 1e-05 s⁻¹.

Turning to C8G C11U A52U G62A G63U, the “self-cleavage kobs at 640 uM GlcN6P” value in the series with glucosamine-6-phosphate [1] was less than 1e-05 s⁻¹. In the series with glucosamine-6-phosphate [2], the “self-cleavage kobs at 160 uM GlcN6P” value was less than 1e-05 s⁻¹.

In the case of C8U U45G A52C, the “self-cleavage kobs at 640 uM GlcN6P” value in the series with glucosamine-6-phosphate [1] is less than 1e-05 s⁻¹. Also, the “self-cleavage kobs at 2500 uM GlcN6P” value with glucosamine-6-phosphate [3] was less than 1e-05 s⁻¹.

As for C8A G21U A39G, in the series with glucosamine-6-phosphate [1], the “self-cleavage kobs at 640 uM GlcN6P” value was less than 1e-05 s⁻¹.

Consider C8U A48G A53U, for which, in the series with glucosamine-6-phosphate [1], the “self-cleavage kobs at 640 uM GlcN6P” value was less than 1e-05 s⁻¹.

As for C8U G59U C68A, the “self-cleavage kobs at 640 uM GlcN6P” value with glucosamine-6-phosphate [1] is less than 1e-05 s⁻¹.

Values taken from the supplement of paper PMC7125110.
